Several values for one entry are separate records, joined by “and”; a condition that tells them apart may be missing. Equal values may be shown once. The shares of active, inactive and inconclusive entries below differ from those in the screen. For part of these data: A potency beside an inconclusive call is a rough fit, not a confirmed value. More than one record can exist for a structure, and the calls need not agree. Activity calls are given as the source filed them. Unless noted, the call rests on the fitted dose curve; in most records, active means well fitted curve in the direction sought with a large enough effect in the repeat runs; inconclusive means weak or mixed curves; inactive means no such curve, though single readings can be large; an effect the other way counts as inactive or inconclusive.
Key:
[1] = qHTS assay to identify small molecule antagonists of the estrogen related receptor signaling pathway with the pleiotropic PPARgamma coactivator (PGC) from Tox21 10K library - cell viability counter screen (AID 1224840; active means well fitted cell-killing curve with a large enough effect in the repeat runs, not every such curve was filed as active; inconclusive means weak or mixed curves, or effect the other way; inactive means no such curve, though single readings can be large or run the other way; further: nearly all actives have a fitted effect of over 40% in size)
Procedure, shortened: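 Seeded PGC/ERR cells (2,000/well, 6 h, 37 C/5% CO2) get compound by pin tool; 17.5 h incubation at 37 C; CellTiter-Fluor added, 30 min, fluorescence measured.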

[2] = target: Thyrotropin receptor (Homo sapiens) (UniProt P16473); experiment: qHTS assay to identify small molecule agonists of the thyroid stimulating hormone receptor (TSHR) signaling pathway (AID 1224843; calls by dose curve; further: nearly all actives have a fitted effect of over 45% in size; on activation: on the % scale 0 is the no-effect control and ±100 the full control effect); conditions: TSHR-HEK293 cells, cAMP HTRF, agonist mode, 30 min; activation: at 92.4 µM (top of the series) unless noted
Procedure, shortened: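 Agonist-mode screen: TSHR HEK293 cells received test chemicals for half an hour at room temperature, then HTRF cAMP detection reagents for one hour prior to fluorescence measurement. Each chemical ran as a 15-concentration series, triplicated.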

[3] = qHTS assay to identify small molecule agonists of H2AX (AID 1224845; active means well fitted activation curve with a large enough effect in the signal ratio in the repeat runs, not every such curve was filed as active; inconclusive means weak or mixed curves; the % refers to the signal ratio; on activation (H2AX phosphorylation): on the % scale 0 is the no-effect control and ±100 the full control effect); conditions: CHO-K1 phospho-H2AX Ser139 HTRF, 3 h; activation (H2AX phosphorylation): at 154 µM (top of the series)
Procedure, shortened: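 Wild-type CHO-K1 cells, plated overnight, exposed 3hr at 37C to 15 concentrations (0.76% DMSO final). Lysed, then HTRF anti-pH2AX (S139) cryptate and anti-H2AX-d2 antibodies, 24 hr room temperature; 665/620 nm emission read.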

[4] = qHTS assay to identify small molecule agonists of the hypoxia (HIF-1) signaling pathway (AID 1224846; active means well fitted activation curve with a large enough effect in the signal ratio in the repeat runs, not every such curve was filed as active; inconclusive means weak or mixed curves; the % refers to the signal ratio); conditions: HRE-bla ME-180 cells, beta-lactamase ratio, 17 h; activation: at 76.8 µM (top of the series) unless noted
Procedure, shortened: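 Reporter induction in HRE-bla ME-180 cells is taken as agonism: cells sit 5 hrs after plating, receive compounds or DMSO only, incubate 17 hrs at 37C under 5% CO2, and are loaded with CCF4-AM for beta-lactamase FRET measurement.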

[5] = qHTS assay to identify small molecule agonists of H2AX - cell viability counter screen (AID 1224847; calls by dose curve; further: nearly all actives have a fitted effect of over 30% in size)
Procedure, shortened: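 CHO-K1 wt, 1000 cells/well, o/n 37C; cpds 15 conc, 3 h 37C, 0.76% DMSO; CellTiter-Glo, 30 min RT, luminescence.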

[6] = qHTS RealTime-Glo MT Cell Viability Assay in HEK293 cells - 16 hour (AID 1224872); further: nearly all actives have a fitted effect of over 50% in size
Procedure, shortened: (§1)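 Nonlytic real-time viability readout: viable cells convert prosubstrate to NanoLuc substrate, giving luminescence proportional to live cell number. HEK293, 600 cells/well, compound added after 5 h, continuous culture at 37 C.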

[7] = qHTS RealTime-Glo MT Cell Viability Assay in HepG2 cells - 8 hour (AID 1224873); further: nearly all actives have a fitted effect of over 55% in size
Procedure, shortened: (§2)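 HepG2 cells (600/well) mixed with RealTime-Glo MT reagent, settled 5 h at 37 C/5% CO2 before compound addition. Nonlytic NanoLuc luminescence from viable-cell prosubstrate reduction read repeatedly during 40 h treatment at 37 C.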

[8] = qHTS RealTime-Glo MT Cell Viability Assay in HEK293 cells - 40 hour (AID 1224874); conditions: RealTime-Glo luminescence; max response: stronger effect = lower value; further: nearly all actives have a fitted effect of over 50% in size
Procedure, shortened: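 HEK293 + NanoLuc + prosubstrate, 600 cells/well; 5 h, 37 C/5% CO2; compound 23 nL in DMSO by pintool; 37 C; luminescence read at 0, 8, 16, 24, 32 and 40 h time points.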

[9] = qHTS assay to identify small molecule antagonists of the estrogen related receptor (ERR) signaling pathway from Tox21 library (AID 1224848); further: nearly all actives have a fitted effect of over 50% in size
Procedure, shortened: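 Quantitative high-throughput format: ERR reporter cells (2,000/well) pre-incubated 6 h, treated 18 h at 37 C with compounds in DMSO alongside positive and negative controls, then read by ONE-Glo luminescence.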

[10] = qHTS RealTime-Glo MT Cell Viability Assay in HEK293 cells - 32 hour (AID 1224868); further: nearly all actives have a fitted effect of over 50% in size
Procedure, shortened: as §1

[11] = qHTS assay to identify small molecule agonists of the hypoxia (HIF-1) signaling pathway - cell viability counter screen (AID 1224844; calls by dose curve; further: nearly all actives have a fitted effect of over 50% in size)
Procedure, shortened: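 HRE-bla ME-180; 0.5% dFBS; cpd 17 h, 37C, 5% CO2; CellTiter-Glo lum., 30 min RT, post-FRET read, same wells.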

[12] = qHTS RealTime-Glo MT Cell Viability Assay in HepG2 cells - 40 hour (AID 1224870); further: nearly all actives have a fitted effect of over 50% in size
Procedure, shortened: as §2

[13] = qHTS assay to identify small molecule antagonists of the estrogen related receptor signaling pathway with the pleiotropic PPARgamma coactivator (PGC) from Tox21 10K library (AID 1224841; call rule not given here)
Procedure, shortened: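 Test chemicals dissolved in DMSO were applied to pre-incubated (6 h) PGC/ERR cells at 2,000 cells/well for an 18 h, 37 C treatment; reporter luminescence was then read using One-Glo.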

[14] = A CellTox Green Cytotoxicity Assay to monitor cytotoxicity in HEK293 cells - 40 hour (AID 1224871); further: nearly all actives have a fitted effect of over 45% in size
Procedure, shortened: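 Tox21 screen in HEK293: membrane-impermeant cyanine dye fluoresces on binding dead-cell DNA; compound pinned 5 h post-seeding, plates held at 37 C, signal read repeatedly through 40 h.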

[15] = qHTS assay to identify small molecule agonists of the estrogen related receptor signaling pathway with the pleiotropic PPARgamma coactivator (PGC) from Tox21 10K library (AID 1224842); further: nearly all actives have a fitted effect of over 15% in size; on activation: on the % scale 0 is the no-effect control and ±100 the full control effect
Procedure, shortened: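 PGC/ERR reporter cell line, 2,000 cells per well, incubated 6 h at 37 C before 23 nL compound in DMSO was added. After 18 h at 37 C, One-Glo luminescence read following 30 min at room temperature.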
Potency means the concentration at half of the fitted maximal effect; tags describe the fitted curve by direction and shape or compound fluorescence and quenching.

UniProt P16473, sequence (P16473 whole entry, looked up): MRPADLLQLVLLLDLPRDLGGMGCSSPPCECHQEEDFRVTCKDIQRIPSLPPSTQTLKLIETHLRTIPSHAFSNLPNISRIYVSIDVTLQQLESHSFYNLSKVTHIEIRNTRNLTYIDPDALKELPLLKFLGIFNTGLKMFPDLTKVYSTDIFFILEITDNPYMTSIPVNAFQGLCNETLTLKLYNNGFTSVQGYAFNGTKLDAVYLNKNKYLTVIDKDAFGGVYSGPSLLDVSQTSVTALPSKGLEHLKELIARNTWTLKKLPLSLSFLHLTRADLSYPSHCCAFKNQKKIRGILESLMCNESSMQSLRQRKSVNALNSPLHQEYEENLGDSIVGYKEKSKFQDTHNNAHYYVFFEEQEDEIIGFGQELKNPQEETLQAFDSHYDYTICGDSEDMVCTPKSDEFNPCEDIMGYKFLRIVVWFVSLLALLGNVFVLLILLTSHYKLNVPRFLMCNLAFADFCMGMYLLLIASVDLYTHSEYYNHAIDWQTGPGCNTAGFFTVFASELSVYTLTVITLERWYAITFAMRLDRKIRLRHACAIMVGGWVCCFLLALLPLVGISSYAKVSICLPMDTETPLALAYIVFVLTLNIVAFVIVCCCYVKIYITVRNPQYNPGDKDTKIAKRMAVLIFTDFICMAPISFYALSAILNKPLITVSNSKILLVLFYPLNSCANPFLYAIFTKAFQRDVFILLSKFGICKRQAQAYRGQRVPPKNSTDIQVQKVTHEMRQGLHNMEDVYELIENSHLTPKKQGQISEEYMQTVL

SMILES: CN(C)S(=O)(=O)N(SC(F)(Cl)Cl)c1ccccc1
- Potency [1]: active: 24.3 µM
- activation [2]: inconclusive: -62.9%
- activation (H2AX phosphorylation) [3]: inconclusive: -6.01%
- Potency [4]: inconclusive: 17.4 µM [falling, full curve]
- Potency [5]: active: 89.8 µM
- Potency [6]: active: 4.9 µM
- Potency [7]: active: 21.9 µM
- Potency [8]: active: 4.36 µM

SMILES: Cc1cc(SCc2sc(-c3ccc(C(F)(F)F)c(F)c3)nc2C)ccc1OCC(=O)O
- Potency [1]: inactive
- Potency [4]: inconclusive: 61.6 µM
- Potency [9]: inconclusive: 54.5 µM [inhibitor, partial curve]
- Potency [10]: inconclusive: 49 µM [cytotoxic, partial curve]
- Potency [6]: inconclusive: 49 µM [cytotoxic, partial curve, poor fit]
- Potency [8]: inconclusive: 49 µM [cytotoxic, partial curve]

SMILES: O=[N+]([O-])c1cccc(O)c1
- Potency [1]: inactive
- Potency [5]: inconclusive: 101 µM [cytotoxic, partial curve, poor fit]
- Potency [10]: inactive

SMILES: CN(C)C(=S)SSC(=S)N(C)C
- Potency [1]: active: 214 nM and active: 243 nM and active: 266 nM
- Potency [11]: active: 171 nM and active: 347 nM and inconclusive: 1.2 µM [cytotoxic, full curve, poor fit]
- Potency [5]: active: 49.8 µM and active: 89.8 µM and active: 49.2 µM
- Potency [10]: active: 242 nM and active: 245 nM and inconclusive: 12 µM [cytotoxic, partial curve, poor fit]
- Potency [6]: active: 384 nM and active: 692 nM and inconclusive: 23.9 µM [cytotoxic, partial curve, poor fit]
- Potency [7]: active: 48.3 µM and active: 24.5 µM and active: 3.01 µM
- Potency [8]: active: 216 nM and active: 219 nM and active: 9.52 µM

SMILES: ClC1=C(Cl)C2(Cl)C3C(Cl)C(Cl)CC3C1(Cl)C2(Cl)Cl (stereo unspecified)
- Potency [1]: inconclusive: 68.4 µM [cytotoxic, single point]
- Potency [11]: active: 21.8 µM and inconclusive: 61.6 µM [cytotoxic, single point]
- Potency [3]: active: 100 µM and active: 89.8 µM
- Potency [4]: inconclusive: 24.5 µM [falling, full curve]
- Potency [9]: active: 60.9 µM and active: 54.5 µM
- Potency [10]: inconclusive: 54.9 µM [cytotoxic, single point]
- Potency [12]: inconclusive: 54.8 µM [falling, single point] and inconclusive: 54.9 µM [falling, single point]
- Potency [7]: inconclusive: 54.8 µM [falling, single point] and inconclusive: 54.9 µM [falling, single point]
- Potency [8]: active: 48.8 µM and inconclusive: 54.9 µM [cytotoxic, single point]

SMILES: [Cl][Hg][c]1ccccc1
- Potency [1]: active: 2.43 µM
- Potency [4]: inconclusive: 1.95 µM [falling, full curve]
- Potency [5]: active: 7.13 µM
- Potency [10]: active: 1.1 µM
- Potency [6]: active: 1.38 µM
- Potency [7]: active: 2.75 µM
- Potency [8]: active: 1.1 µM

SMILES: CN1CCc2cc3c(cc2C1O)OCO3 (stereo unspecified)
- Potency [1]: inconclusive: 61.5 µM [rising, partial curve]
- Potency [4]: inconclusive: 43.9 µM [activator, partial curve]
- Potency [10]: inactive

SMILES: O=[N+]([O-])c1cc(C(F)(F)F)c(Cl)c([N+](=O)[O-])c1Cl
- Potency [13]: inconclusive: 15.4 µM [falling, full curve, poor fit]
- Potency [11]: active: 7.76 µM
- Potency [3]: active: 31.8 µM
- Potency [4]: inconclusive: 6.16 µM [falling, full curve]
- Potency [5]: inconclusive: 127 µM [cytotoxic, single point]
- Potency [6]: active: 6.92 µM
- Potency [7]: active: 43.6 µM

SMILES: CC(Cc1ccc(C(C)(C)C)cc1)CN1C[C@@H](C)O[C@@H](C)C1 (stereo partly specified)
- Potency [2]: inconclusive: 24.3 µM [inhibitor, partial curve]
- Potency [11]: inconclusive: 38.9 µM [cytotoxic, partial curve, poor fit]
- activation (H2AX phosphorylation) [3]: inconclusive: 11.7%
- Potency [4]: inconclusive: 54.9 µM [falling, single point]
- Potency [5]: active: 63.5 µM
- Potency [9]: inconclusive: 43.3 µM [inhibitor, partial curve]
- Potency [10]: inactive
- Potency [14]: active: 49 µM
- Potency [6]: inconclusive: 38.9 µM [cytotoxic, partial curve]
- Potency [8]: inconclusive: 34.7 µM [cytotoxic, partial curve]

SMILES: [F][Sn]([c]1ccccc1)([c]1ccccc1)[c]1ccccc1
- Potency [13]: inconclusive: 0.611 µM [falling, full curve, poor fit]
- Potency [11]: active: 0.549 µM
- Potency [3]: active: 1.42 µM
- Potency [5]: active: 22.5 µM
- Potency [10]: active: 0.436 µM
- Potency [14]: active: 1.55 µM
- Potency [7]: active: 1.74 µM

SMILES: CCCCCCCC[N+](C)(CCCCCCCC)CCCCCCCC
- Potency [2]: inconclusive: 27.3 µM [activator, partial curve, poor fit]
- activation [2]: inconclusive: -1.5% and inconclusive: -11.2%
- Potency [3]: active: 17.9 µM
- Potency [4]: inconclusive: 19.5 µM [falling, full curve] and inconclusive: 13.8 µM [falling, full curve] and inconclusive: 21.9 µM [falling, full curve]
- Potency [6]: active: 2.75 µM and active: 1.1 µM and active: 6.16 µM
- Potency [8]: active: 173 nM and active: 138 nM and active: 1.1 µM

SMILES: CC(=O)C(Cl)(Cl)Cl
- Potency [13]: active: 8.34 µM
- Potency [4]: inconclusive: 10.6 µM [falling, full curve]
- Potency [5]: active: 30.8 µM
- Potency [10]: inconclusive: 18.8 µM [cytotoxic, full curve]
- Potency [6]: inconclusive: 23.7 µM [cytotoxic, full curve]
- Potency [8]: inconclusive: 18.8 µM [cytotoxic, full curve]

SMILES: Cc1ccc(OP(=O)(Oc2ccc(C)cc2)Oc2ccc(C)cc2)cc1
- Potency [2]: active: 12.2 µM and active: 30.6 µM
- Potency [11]: inconclusive: 54.9 µM [cytotoxic, single point]
- Potency [3]: inconclusive: 127 µM [activator, single point]
- Potency [5]: inconclusive: 101 µM [cytotoxic, partial curve, poor fit] and inconclusive: 113 µM [cytotoxic, single point]
- Potency [10]: inconclusive: 1.95 µM [cytotoxic, full curve]
- Potency [6]: inconclusive: 6.16 µM [cytotoxic, partial curve, poor fit] and inactive
- Potency [8]: inconclusive: 2.18 µM [cytotoxic, full curve]

SMILES: CC(C)=CC1C(C(=O)OC(C#N)c2cccc(Oc3ccccc3)c2)C1(C)C (stereo unspecified)
- Potency [2]: inconclusive: 61.1 µM [inhibitor, partial curve, poor fit]

SMILES: CCOP(=S)(OCC)SCSCC
- Potency [2]: inconclusive: 27.3 µM [inhibitor]
- Potency [11]: inactive

SMILES: CC1(C)CN=C(NN=C(/C=C/c2ccc(C(F)(F)F)cc2)/C=C/c2ccc(C(F)(F)F)cc2)NC1
- Potency [13]: active: 27.3 µM
- Potency [11]: active: 21.9 µM
- Potency [4]: inconclusive: 15.5 µM [falling, full curve]
- Potency [5]: active: 25.3 µM
- Potency [7]: active: 24.5 µM

SMILES: CC(C)[C@H](C(=O)OC(C#N)c1cccc(Oc2ccccc2)c1)c1ccc(OC(F)F)cc1 (stereo partly specified)
- Potency [15]: inactive
- Potency [4]: inconclusive: 38.9 µM [falling, partial curve]
- Potency [5]: inconclusive: 28.4 µM [cytotoxic, partial curve]
- Potency [7]: inconclusive: 43.6 µM [falling, partial curve]

SMILES: O=P(Oc1ccccc1)(Oc1ccccc1)Oc1ccccc1
- Potency [2]: active: 12.1 µM and active: 9.69 µM
- Potency [11]: inconclusive: 24.4 µM [cytotoxic, partial curve]
- Potency [3]: inactive
- Potency [5]: active: 89.3 µM
- Potency [9]: inconclusive: 13.6 µM [inhibitor, full curve] and inconclusive: 34.4 µM [inhibitor, partial curve]

SMILES: Brc1ccc(Oc2ccccc2)cc1
- Potency [15]: active: 0.885 µM
- Potency [2]: active: 1.25 µM and inconclusive: 61.1 µM [inhibitor]
- Potency [11]: inconclusive: 63.2 µM [cytotoxic, single point]
- Potency [4]: inconclusive: 63.2 µM [falling, single point]
- Potency [5]: inconclusive: 130 µM [cytotoxic] and inconclusive: 127 µM [cytotoxic, single point]
- Potency [9]: inconclusive: 78.8 µM [inhibitor, partial curve, poor fit]

SMILES: CN(C)CCO
- Potency [2]: inconclusive: 69.1 µM [inhibitor, single point]

SMILES: CCCCC(CC)COC(=O)c1c(Br)c(Br)c(Br)c(Br)c1C(=O)OCC(CC)CCCC (stereo unspecified)
- activation [2]: inconclusive: 0.551% [at 42.5 µM]

Source: PubChem BioAssay (Tox21)
